# Data from PMC4336329 (PLoS ONE, 2015).
# Among all 310,000 compounds or so, about 2,200 (0.71%) showed an effect of 50% or more. The effect is printed as a negative number. The list shows a part of the results.
# Target: human ether-à-go-go-related gene (hERG) potassium channel (human, UniProt Q12809)
# Test: primary screen, population patch clamp on CHO cells stably expressing hERG
# Chain of human ether-à-go-go-related gene (hERG) potassium channel (Q12809 whole entry, looked up): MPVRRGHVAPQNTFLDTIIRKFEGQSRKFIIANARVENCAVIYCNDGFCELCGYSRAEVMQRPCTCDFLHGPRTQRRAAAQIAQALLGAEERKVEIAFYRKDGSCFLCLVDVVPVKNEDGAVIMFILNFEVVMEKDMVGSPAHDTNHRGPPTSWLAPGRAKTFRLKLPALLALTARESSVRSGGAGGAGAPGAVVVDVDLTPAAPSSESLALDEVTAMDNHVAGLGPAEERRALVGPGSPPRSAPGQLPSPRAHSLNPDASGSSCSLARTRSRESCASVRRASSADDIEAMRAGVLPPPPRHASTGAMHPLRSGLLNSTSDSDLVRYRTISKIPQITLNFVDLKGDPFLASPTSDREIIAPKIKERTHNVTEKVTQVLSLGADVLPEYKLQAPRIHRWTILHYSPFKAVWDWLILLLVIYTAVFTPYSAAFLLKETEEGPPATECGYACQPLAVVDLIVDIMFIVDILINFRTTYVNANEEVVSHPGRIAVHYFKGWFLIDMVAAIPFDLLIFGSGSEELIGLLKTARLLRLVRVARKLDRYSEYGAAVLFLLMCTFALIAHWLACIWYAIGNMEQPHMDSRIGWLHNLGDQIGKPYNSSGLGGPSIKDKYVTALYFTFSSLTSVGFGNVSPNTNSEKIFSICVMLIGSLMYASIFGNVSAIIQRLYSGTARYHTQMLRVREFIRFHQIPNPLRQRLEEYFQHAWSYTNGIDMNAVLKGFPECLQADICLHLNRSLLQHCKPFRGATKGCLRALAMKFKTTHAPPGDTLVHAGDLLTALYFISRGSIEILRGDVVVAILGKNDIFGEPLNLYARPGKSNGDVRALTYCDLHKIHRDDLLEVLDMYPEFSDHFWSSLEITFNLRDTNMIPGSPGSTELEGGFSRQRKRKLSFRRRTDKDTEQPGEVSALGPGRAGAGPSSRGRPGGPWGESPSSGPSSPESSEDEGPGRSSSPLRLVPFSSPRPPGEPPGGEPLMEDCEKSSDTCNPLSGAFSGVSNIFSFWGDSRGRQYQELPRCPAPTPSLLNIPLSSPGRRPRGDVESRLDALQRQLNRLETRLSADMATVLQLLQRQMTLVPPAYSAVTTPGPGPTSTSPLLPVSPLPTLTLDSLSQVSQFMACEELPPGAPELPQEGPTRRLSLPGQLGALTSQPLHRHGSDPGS
row,Structure (SMILES),"hERG current change (%, negative = inhibition) at 1uM"
1,COc1cc(CN2CC(=O)N(c3cc(Cl)ccc3C)C2=S)cc(OC)c1OC,16.5%
2,CCC(C(=O)NC1CCCC1)N(C(=O)Cn1nnc(-c2ccc(C)o2)n1)C(C)(C)C (stereo not shown),0.794%
3,CCCSCC(=O)Nc1ncc2c(n1)-c1ccccc1CC2,4.05%
4,COc1ccc(Nc2nc(NCc3ccco3)nc(N/N=C/c3ccccc3)n2)cc1,5.05%
5,Cl.c1ccc(-c2nc(NCCCn3ccnc3)c3oc4ccccc4c3n2)cc1,4.89%
6,CCOC(=O)c1c(C)nc2sc(C(=O)Nc3ccc(C(C)=O)cc3)c(N)c2c1-c1ccc(OC)cc1,9.59%
7,COc1cc(OC)c(N2CC(C(=O)Nc3cc(Cl)ccc3N3CCOCC3)CC2=O)cc1Cl (stereo not shown),6.05%
8,CCOc1ccccc1NC(=O)NC1CCCCCCC1,14%
9,N#CCCN(C(=O)COc1ccc(C#N)cc1)c1ccc(F)cc1,-0.0401%
10,CN1CCN(C2=NC(=O)/C(=C/c3ccccc3OS(=O)(=O)c3ccccc3)S2)CC1,-21.5%
11,COc1ccc(NC2CCCN(C(=O)c3ccc(C(C)=O)s3)C2)cc1 (stereo not shown),19.7%
12,COc1ccc(-n2c(SCC(=O)Nc3ccc4c(c3)OCO4)nnc2C(C)N2CCCCC2)cc1 (stereo not shown),-10.7%
13,Cn1cccc1-c1nc2ccccc2[nH]1,7.06%
14,O=C(O)C1=C[C@H](c2csc3ccccc23)C[C@H](OCCCCO)O1,7.74%
15,CCCC[n+]1c2ccccc2cc2ccccc21.[I-],11.5%
16,Cc1ccc(C)c(NS(=O)(=O)c2cc(C(=O)N3CCc4ccccc4C3)ccc2Cl)c1,11.7%
17,O=C(N/N=C/c1ccc(O)cc1)c1cc(C2CC2)[nH]n1,6.41%
18,O=C(Cn1ccc(NC(=O)OCc2ccccc2)nc1=O)NCc1nc2ccccc2[nH]1,15.1%
19,C/C=C/c1ccc(OCCCn2cncn2)c(OC)c1,6%
20,CCCCN(C(=O)Cn1ncc(Cl)c(Cl)c1=O)c1c(N)n(CC(C)C)c(=O)[nH]c1=O,17.2%
21,CSc1nc2ccccc2cc1/C=C(\C#N)c1ccc(Cl)cc1Cl,6.16%
22,COc1ccc(-c2cc(=O)[nH][nH]2)cc1,10.3%

row,Structure (SMILES),"hERG current change (%, negative = inhibition) at 1uM"
1,C=CCn1c(C)cc(C(=O)CSc2nnc(NC(C)C)s2)c1C,4.41%
2,COc1ccccc1Nc1nc(-c2c(C)[nH]c3ccccc23)cs1,16.5%
3,O=C(Nc1cccc([N+](=O)[O-])c1)c1ccc2c(c1)OCCO2,4.81%
4,CNP(=O)(Oc1ccccc1)OC12CC3CC(CC(C3)C1)C2 (stereo not shown),-1.75%
5,O=C(O)CCn1c(-c2ccccc2)cc2c1CCCC2=O,16.8%
6,CCC1=C(OC(=O)N(CC)CC)N2C(=O)OC(=NCCc3c[nH]c4ccccc34)[C@]2(C)[C@H]2C1=CC[C@H]1C(=O)N(C)C(=O)[C@H]12,15.5%
7,O=C(COc1ccc(-n2cnnn2)cc1)Nc1ccccc1OC(F)F,11.8%
8,Cn1c(=O)n(Cc2ccccc2)c(=O)c2c1nc1n2CCCN1CCc1ccccc1,3.61%
9,NS(=O)(=O)c1ccc(NC(=O)COC(=O)CC2Sc3ccccc3NC2=O)cc1 (stereo not shown),13.3%
10,CN1CCN(c2ccc(N)cc2Cl)CC1.Cl,4.79%
11,CSc1ccc(S(=O)(=O)Nc2c(C)n(C)n(-c3ccccc3)c2=O)cc1,9.99%
12,CCOC(=O)Cn1c(O)c(N=NC(=O)CNC(=O)Cc2ccccc2)c2ccccc21,6.05%
13,O=C(c1ccco1)N1C(=O)c2cccc3cccc1c23,5.53%
14,O=C(CCCOc1ccc(Br)cc1)Nc1nnc(C2CC2)s1,12%
15,CC(Oc1ccccc1)C(=O)N1CCC2(CC1)Oc1ccc(F)cc1C(=O)C21CC(c2ccccc2)=NO1 (stereo not shown),14.1%
16,COc1ccc(-c2c(C)n([O-])c(C)c(-c3ccccc3)[n+]2=O)cc1OC,4.59%
17,O=C(CCS(=O)(=O)c1ccccc1)Nc1ncc([N+](=O)[O-])s1,18.1%
18,CC1CCCC(NC2CCCCNC2=O)C1 (stereo not shown),11.6%
19,C[C@@H]1CN(C(=O)c2ccc(OC3CCN(S(=O)(=O)N(C)C)CC3)cc2)C[C@H](C)O1,2.69%
20,COc1ccc(NC(=O)C2CCN(S(=O)(=O)c3cccs3)CC2)cc1OC,18.5%
21,O=C(Nc1ccc(Cl)c(Cl)c1)N1CCOCC1,6.12%
22,CCCCn1c(N)c(N(CC)C(=O)Cc2ccc(S(=O)(=O)N3CCOCC3)s2)c(=O)[nH]c1=O,-4.2%

row,Structure (SMILES),"hERG current change (%, negative = inhibition) at 1uM"
1,COc1ccccc1-n1c(-c2ccoc2)nc2ccccc2c1=O,-11.5%
2,COCCOC(=O)C1=C(C)NC(C)=C(C(=O)OC(C)C)C1c1cccc([N+](=O)[O-])c1 (stereo not shown),4.52%
3,CCC1(C2=NCCN2)Cc2ccccc2O1.Cl (stereo not shown),8.66%
4,CCOC(=O)C1CCCN(C(=O)c2cc3ncc(Br)cn3n2)C1 (stereo not shown),8.85%
5,Cc1ccc(C2=NN(C(=O)CCC(=O)O)C(c3cn(-c4ccccc4)nc3-c3ccc(C)cc3)C2)cc1 (stereo not shown),4.3%
6,CCOc1ccc(CN(C)CC(=O)Nc2cccc(S(=O)(=O)N(C)c3ccccc3)c2)cc1.O=C(O)C(=O)O,14.6%
7,CC(C)c1ccc(/C=C2\SC(N3CCOCC3)=NC2=O)cc1,-0.379%
8,O=C(NC1CCCCC1)C(c1ccncc1)N(CC1CCCO1)C(=O)C(F)(F)F (stereo not shown),4.33%
9,CCn1c(SCC(=O)NC)nnc1C(C)C,10.9%
10,CSc1ccccc1C(=O)NCc1ccccc1C,12.5%
11,CCC(C)(C)NC(=O)/C=C/c1cnc2ccccc2n1,-0.677%
12,Cc1cc(=O)[nH]c2c1c(C)nn2-c1ccccc1,0.187%
13,COc1ccc(C(C)C)cc1S(=O)(=O)N1CCC(C(=O)NCc2cccnc2)CC1,8.19%
14,O=C(N/N=C/c1ccc(Cl)cc1Cl)c1cccc(F)c1,-2.53%
15,CCOC(=O)c1c(C)c(C(=O)O)n(C)c1C,10.3%
16,COc1cc(OC)cc(C(=O)N[C@H](C(=O)Nc2cc(F)ccc2C)C(C)C)c1,10.8%
17,O=C(CSc1ccc2c(c1)OCCO2)NC(=O)NC1CCCC1,6.1%
18,CSc1ccc(Cc2ccc(Cl)cc2Cl)nn1,5.79%
19,CCCCSc1nsc(NC(C)=O)n1,4.11%
20,O=C(c1ccc2nc[nH]c2c1)N1CCN(c2cccc(C(F)(F)F)c2)CC1,17.2%
21,Cc1ccc(Cl)cc1NC1=C/C(=N\S(=O)(=O)c2cccs2)c2ccccc2C1=O,8.85%
22,CC(C)NS(=O)(=O)c1ccc(OCC(=O)NCc2ccccc2)cc1,12.9%

row,Structure (SMILES),"hERG current change (%, negative = inhibition) at 1uM"
1,Cc1ccccc1-c1cc2nc(C)c(Cl)c(=O)n2[nH]1,9.76%
2,Cc1sc2c(c1C)c(=O)n(-c1ccccc1)c1nnc(C)n21,12.5%
3,O=C(O)c1cccc(NC(=O)c2cccc(S(=O)(=O)Nc3cccc([N+](=O)[O-])c3)c2)c1,19%
4,C=CCn1c(COc2ccccc2F)nnc1SCC(=O)Nc1cc(C)on1,8.05%
5,Cc1ccc(/C=C/C(=O)C2C(=O)c3ccccc3C2=O)cc1,9.1%
6,COc1ccc2nc(C)cc(SCC(=O)N/N=C/c3ccc(O)c(O)c3)c2c1,13%
7,O=C(NCCC1=CCCCC1)C1CCN(S(=O)(=O)c2cnc[nH]2)CC1,4.43%
8,CN(C(=O)CC1C(=O)NCCN1C/C=C/c1ccccc1)C1CCOCC1 (stereo not shown),14.2%
9,COc1ccc(CNC(=O)c2c(O)c3cc(OC)c(OC)cc3[nH]c2=O)cc1OC,11.7%
10,O=c1c2ccccc2nc(SCc2cn3ccsc3n2)n1-c1ccccc1F,8.53%
11,CC(c1ccccc1)n1c(N2CCN(C)CC2)nc2c1c(=O)[nH]c(=O)n2C (stereo not shown),1.3%
12,COc1ccc(CC(CN)c2ccccc2)cc1 (stereo not shown),9.26%
13,COc1ccc(C(=O)COC(=O)c2cccnc2SC)cc1,4.19%
14,CC(=O)NS(=O)(=O)c1ccc(N)cc1,5.19%
15,c1ccc2c(c1)CCc1snnc1-2,12.1%
16,O=S(=O)(c1ccc(-c2csc(=Nc3ccccc3)n2CCCN2CCOCC2)cc1)N1CCOCC1,-1.19%
17,CCSc1cc(N2CC(C)OC(C)C2)nc(-c2ccccc2Cl)n1 (stereo not shown),17.6%
18,COc1cc(NC(=S)NCCC(c2ccccc2)c2ccccc2)cc(OC)c1,3.65%
19,N#CCc1c(C#N)c(N)nc(N2CCCC(O)C2)c1C#N (stereo not shown),11.3%
20,COc1ccc(CCNC(=O)CCNS(=O)(=O)c2ccc3c(c2)CCN3C(C)=O)cc1OC,-1.63%
21,COC/C=C/C1=CC2=CC(=O)C(C)(OC(=O)c3cnc4ccccc4n3)C(=O)C2=CN1CC(C)C (stereo not shown),14.7%
22,O=C(CN(C(=O)c1csnn1)c1cccc2c1CCCC2)NCc1ccccc1,12.3%
